# Several values for one entry are separate records, joined by “and”; a condition that tells them apart may be missing. Equal values may be shown once. The campaign covered roughly 360,000 compounds. About 2,600 (0.72%) were called active. The shares of active, inactive and inconclusive entries below differ from those in the screen. The call rests on the fitted dose curve; in most records, active means well fitted inhibition curve with a large enough effect; inconclusive means small, poorly fitted or top-dose-only effect; inactive means no such curve, though single readings can be large or run the other way. Potencies of inconclusive entries are doubtful fits and often do not repeat.
# Test: Primary qHTS for Inhibitors of ATXN expression; further: nearly all actives have a fitted effect of over 55% in size
# Details: HEK-293 ATXN2-luciferase reporter, luminescence, 24 h; activity change, negative = inhibition: at 57 µM (top of the series)
# In short: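 ATXN2-luciferase reporter cells (luciferase flanked by upstream and downstream ATXN2 gene portions) were treated 24 h at 37 °C with compounds at up to 57 uM. SteadyGlo luminescence gave expression; GF-AFC fluorescence gave viability.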
# On the % scale 0 is the no-effect control and ±100 the full control effect; potency means the concentration at half of the fitted maximal effect; tags describe the fitted curve by direction and shape.
Compound,"activity change, negative = inhibition",Potency
O=C1/C(=C\c2cc(Cl)c(O)c(Cl)c2)SC(=S)N1Cc1ccccc1,inconclusive: -59.4% [inhibitor],–
O=C(Nc1cccc(Cl)c1)C1CCCN(c2ncnc3c2nc2n3CCCCC2)C1 (stereo not given),–,"inconclusive: 35.5 µM [inhibitor, partial curve, poor fit]"
N#Cc1cc(NC(=O)c2ccc(Cl)cc2)ccc1Sc1ccccc1,–,"inconclusive: 22.4 µM [inhibitor, single point]"
Cc1ccccc1Nc1c(-c2ccccc2)nc2cccc(C)n12,–,inactive
COc1ccc(OC)c(S(=O)(=O)n2cccn2)c1,–,"inconclusive: 35.5 µM [inhibitor, partial curve, poor fit]"
CCOC(=O)c1ccc(NC(=O)Cn2ncc(Cl)c(Cl)c2=O)cc1,–,"inconclusive: 39.8 µM [inhibitor, single point]"
Cc1ccc(SC2=C(N(C)C)C(=O)c3ccccc3C2=O)cc1,–,"inconclusive: 28.2 µM [inhibitor, single point]"
Cc1ccccc1C(=O)NCC(=O)NNC(=O)CCN1CCN(c2ccccc2)CC1,–,inactive
COc1ccccc1OCCN1CSC(=S)N(C)C1,–,active: 28.2 µM
CSc1nc(N)nc(SCCS(=O)(=O)c2ccc(Cl)cc2)c1C#N,–,"inconclusive: 28.2 µM [inhibitor, single point]"
CCOC(=O)c1c(C)c(-c2ccccc2)n(CC(=O)NCCc2cccc(C)c2)c1C,–,inactive
COc1ccc(C(=O)/C=C/c2cn(CC(O)CN3CCOCC3)c3ccccc23)cc1 (stereo not given),–,inactive
CN(C)CCN(Cc1ccco1)C(=O)c1oc2ccccc2c1NC(=O)c1cccc(F)c1,–,"inconclusive: 31.6 µM [inhibitor, partial curve, poor fit]"
N#Cc1c(N2CCCCC2)nc(N2CCCCC2)c2c1CCN(Cc1ccccc1)C2,–,"inconclusive: 39.8 µM [inhibitor, partial curve, poor fit]"
Cc1cccc(NC(=S)N2CCN(Cc3ccc4c(c3)OCO4)CC2)c1C,–,inactive
Cc1ccc(/C=N/NC(=O)c2cc(C)oc2C)cc1,–,inactive
CCOC(=O)c1ccc(N=c2sc(C(=O)OC)cc(=O)n2-c2ccc(C(=O)OCC)cc2)cc1,–,"inconclusive: 18.9 µM [inhibitor, partial curve, poor fit]"
O=C(NC(=S)Nc1cccc2cnccc12)c1ccccc1,–,inactive
COc1cc2c(cc1OC)C(c1ccc3c(c1)OCO3)C1=C(CC(C)(C)CC1=O)N2 (stereo not given),–,inactive
O=C(NNC(=O)C1CCN(S(=O)(=O)c2ccccc2)CC1)c1ccccc1O,–,"inconclusive: 10 µM [inhibitor, partial curve, poor fit]"
CCN(CC)S(=O)(=O)c1ccc2c(c1)N(CC(=O)NCCCN1CCN(c3cc(Cl)ccc3C)CC1)C(=O)CO2,–,"inconclusive: 31.6 µM [inhibitor, single point]"
Cc1c(-c2n[nH]c(=S)n2-c2ccc(Br)cc2)nnn1-c1ccc(Cl)cc1,–,inactive
Oc1ccc(NCc2ccc(OCc3ccccc3)cc2)cc1,–,"inconclusive: 39.8 µM [inhibitor, single point]"
Cc1cnc(C(=O)N(c2ccccc2)C(c2ccccc2)c2nc3ccccc3[nH]2)cn1 (stereo not given),–,inactive

Compound,"activity change, negative = inhibition",Potency
CCCN(CCC)S(=O)(=O)c1ccc(C(=O)Nc2nnc(CSC)o2)cc1,–,"inconclusive: 25.1 µM [inhibitor, single point]"
COc1ccccc1OCC(=O)N(Cc1nc(-c2ccccc2)no1)C(C)C,inconclusive: -42.9% [inhibitor],–
O=C(Nc1ccc(F)cc1)Nc1ccc2snnc2c1,–,"inconclusive: 39.8 µM [inhibitor, single point]"
O=C(NCc1cccnc1)/C(=C\c1ccc(-c2ccc(Br)cc2)o1)S(=O)(=O)c1ccccc1,–,active: 7.08 µM
CC(=O)C(=Nc1cccc(Cl)c1)NNc1ccccc1C,–,inactive
COc1cccc(C(=O)NCCc2csc(-c3cccc(F)c3)n2)c1OC,–,"inconclusive: 20 µM [inhibitor, partial curve, poor fit]"
O=C(CSc1ccc(Cl)cc1)N1N=CCC1c1ccccc1 (stereo not given),–,inactive
COc1ccc2c(c1)C(=O)N1[C@H]3c4cc(C)ccc4OC[C@@H]3[C@H](c3ccccc3)[C@]1(C)C(=O)N2,–,"inconclusive: 11.2 µM [inhibitor, partial curve, poor fit]"
O=C(CSc1ncnc2sc(-c3ccccc3)cc12)NC1CCS(=O)(=O)C1 (stereo not given),–,"inconclusive: 20 µM [inhibitor, single point]"
COc1c(C)cc(Br)cc1C(=O)Nc1cccc(-c2nc3ncccc3o2)c1,–,active: 22.4 µM
Cn1cccc1/C=N/N1CCN(Cc2ccccc2Cl)CC1,–,"inconclusive: 10 µM [inhibitor, partial curve, poor fit]"
CCOc1ccc(NC(=O)C(=O)NCCc2ccccc2)cc1,–,inactive
CCOC(=O)C1=C(C)NC(C)=C(C(=O)OCC)C1C(=O)OCC(=O)NCCc1ccccc1,–,inactive
COc1cc(/C=N/OCC(=O)Nc2cc(C)cc(C)c2)ccc1OCc1ccc(Cl)cc1,–,inactive
CCOc1cc(/C=N/N=C(N)N)ccc1OCc1ccc(Cl)cc1,–,"inconclusive: 35.5 µM [inhibitor, single point]"
Cc1ccc(C(=O)Nc2ccc(Br)cc2)cc1S(=O)(=O)NCc1ccccc1,–,"inconclusive: 35.5 µM [inhibitor, single point]"
Cc1cccn2c(NCc3ccc4c(c3)OCO4)c(-c3ccc(O)cc3)nc12,–,inactive
COc1ccc(Cl)cc1C(=O)NCCS(=O)(=O)N1CCN(c2ccccc2F)CC1,–,inactive
COc1ccc(C2=Nn3c(nnc3-c3ccccc3OC)SC2)cc1OC1CCCC1,–,"inconclusive: 35.5 µM [inhibitor, single point]"
COc1ccccc1CNc1nc(NCc2ccccc2SC)c2sccc2n1,–,"inconclusive: 17.8 µM [inhibitor, partial curve]"
COc1ccc(-c2ccc(C(=O)NCc3ccc(N4CCN(C)CC4)cc3)c3occc23)c(C)c1,–,"inconclusive: 28.2 µM [inhibitor, single point]"
C=CCN(CC=C)CC(O)Cn1c2ccccc2c2ccccc21 (stereo not given),–,"inconclusive: 22.4 µM [inhibitor, partial curve]"
CCOc1cc(CNCCO)cc(Br)c1OCc1ccc(Cl)cc1Cl,–,active: 20 µM
CCCCN(C)c1c(C)nc2ccc(C(=O)NCc3ccc4c(c3)OCO4)cn12,–,"inconclusive: 39.8 µM [inhibitor, single point]"

Compound,"activity change, negative = inhibition",Potency
CC(C)C[C@H](NC(=O)[C@H](Cc1ccccc1)NC(=O)c1cnccn1)B(O)O,–,active: 0.0273 µM
Cc1cccc(Nc2nc(NCc3ccco3)nc(N)c2[N+](=O)[O-])c1,–,"inconclusive: 0.355 µM [inhibitor, partial curve, poor fit]"
Oc1c(Br)cc(Br)c2cccnc12,–,"active: 22.4 µM and inconclusive: 7.94 µM [inhibitor, partial curve, poor fit]"
CCOC(=O)c1c(C)oc2ncnc(Nc3cc(Cl)ccc3OC)c12,–,inactive
CCN1CCN(Cc2ccc(NC(=O)c3ccc(C)c(NC(=O)c4nccnc4N)c3)cc2C(F)(F)F)CC1,–,active: 28.2 µM
CCOC(=O)n1c(=O)n(Cc2ccc(OC)cc2)c2ccccc21,–,inactive
Cn1c(=O)c(NC2CCCCC2)c2c3c(cccc31)C(=O)c1ccccc1-2,–,inactive
COc1cccc(/C=C2\SC(=S)N(CCCC(=O)NC3=NCCS3)C2=O)c1,–,"inconclusive: 7.94 µM [inhibitor, partial curve, poor fit]"
COc1ccc(F)c(CN(C)CC2CCCN(CCc3ccc(F)cc3)C2)c1 (stereo not given),–,"inconclusive: 3.16 µM [inhibitor, partial curve, poor fit]"
N#Cc1cnn(-c2ncnc3sc(-c4ccccc4)cc23)c1N,–,"inconclusive: 31.6 µM [inhibitor, single point]"
COC(=O)c1cc(OC)c(OC)cc1N1C(=O)CC(C)(C)CC1=O,–,inactive
Cc1c(C(=O)Nc2ccccc2)cnn1-c1ccccc1,–,inactive
CN(C)c1cccc(C(=O)Nc2nc3ccccc3[nH]2)c1,–,"inconclusive: 14.1 µM [inhibitor, partial curve, poor fit]"
COc1ccc(NC(=O)c2c(NCc3cccs3)sc3c2CCCC3)cc1,–,"inconclusive: 39.8 µM [inhibitor, single point]"
O=C1N[C@@H](Cc2ccccc2)C(=O)N2[C@H]3Nc4ccccc4[C@@]3([C@]34C[C@H]5C(=O)N[C@@H](Cc6ccccc6)C(=O)N5[C@H]3Nc3ccccc34)C[C@@H]12,–,"inconclusive: 8.91 µM [inhibitor, partial curve]"
O=C(NCc1ccc2c(c1)OCO2)C(=O)NCC1OCCN1S(=O)(=O)c1ccccc1 (stereo not given),–,inactive
CCOc1cccc(/C=N/NC(=S)NCCN2CCOCC2)c1O,–,"inconclusive: 5.32 µM [inhibitor, partial curve, poor fit]"
CCc1ccc2oc(-c3ccc(N)cc3)nc2c1,–,"inconclusive: 17.8 µM [inhibitor, single point]"
CC(C)=CCc1cc([C@@H]2COc3c(ccc4c3C=CC(C)(C)O4)C2)c(O)cc1O,–,"inconclusive: 35.5 µM [inhibitor, single point]"
Cc1ccc(O)c(NC(=O)c2cc(-c3ccccc3Cl)on2)c1,–,inactive
COC1=CC(=O)C(C2CC(=O)c3c(O)cc(O)cc3O2)=CC1=O (stereo not given),–,"inconclusive: 37.7 µM [inhibitor, single point]"
CC[C@H](CO)Oc1cc(NCc2cccc(N)c2)c2ncn(C(C)C)c2c1,–,"inconclusive: 28.2 µM [inhibitor, single point]"
